Results published in PubChem BioAssay AID1508624 (National Center for Advancing Translational Sciences (NCATS), 2021).
In all, about 48,000 compounds went through this assay and about 120 (0.25%) were called active. Roughly 4% stayed inconclusive and do not appear here. Calls come from the whole dose curve; as a rule, active = well fitted activation curve with a large enough effect; inconclusive = small, poorly fitted or top-dose-only effect, or another doubt; inactive = no such curve, though single readings can be large or run the other way. This is one part of the list.

assay: Primary qHTS for Identification of Small Molecule Activators of Huntingtin-Antisense Promoter Activity; settings: HEK293 HTT-AS promoter firefly luciferase reporter (activity 0% = vehicle and -100% = no light), 24 h; series mostly up to 57.5 µM; activity change, positive = activation: at the top concentration; note: nearly all actives have a fitted effect of over 55% in size
Method in brief: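 Firefly luciferase readout (Dual-Glo, 10 min RT) after 24 h, 37 °C compound exposure (final up to 57.5 uM) of HEK293 reporter cells cultured 24 h beforehand; PTC124 at 50 uM final as control inhibitor; activity scaled vehicle 0%, zero RLU -100%.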

Activity change, positive = activation, inactive:
COc1ccc(CCNC(=O)c2ccc3c(c2)N(Cc2ccc(C)cc2)CCS3)cc1OC -31.1%
CC1=C(C(N)=O)C(c2ccc(C(C)C)cc2)n2nc(SCc3ccccc3)nc2N1 (stereo not drawn) -11.8%
Cc1cc(C)n2nc(SCC(=O)Nc3cc(Cl)ccc3C)nc2n1 -10%
CCOc1ccc(S(=O)(=O)N(CC(=O)Nc2cccnc2)c2ccccc2)cc1 -30.5%
COc1ccc(CNC(=O)CCc2cn(Cc3cc(C)ccc3C)c3ccccc23)cc1OC -24%
O=c1cc(-c2ccccc2)nc(SCc2nc(-c3ccc(C(F)(F)F)cc3)no2)[nH]1 0.459%
CCc1cccc(N(C)C(N)=Nc2cccc3ccccc23)c1 -21.1%
CC(C)(C)c1ccc(-c2nc3cc(NC(=O)c4cc5ccccc5o4)ccc3o2)cc1 -24.2%
COc1ccc(NC(=O)NC2COc3ccccc3C2)c(OC)c1 (stereo not drawn) -4.43%
CC(C)c1ccc(NC(=O)C2CCN(S(=O)(=O)c3cccc4nsnc34)CC2)cc1 -14.7%
O=C(Cn1ccn(-c2cccc(Cl)c2)c(=O)c1=O)NCCc1ccccc1 -6.46%
CC(=O)NS(=O)(=O)c1ccc(N)cc1 1.63%
Cc1c(C(=O)Nc2nc(-c3ccc(F)cc3)ns2)oc2ccc(Br)cc12 -5.04%
Cc1cc(=O)[nH]c2nnc(SCc3ccc(Cl)c(Cl)c3)n12 -1.42%
COc1cccc(NC(=O)CSc2cc(=O)n(C)c3ccc(Cl)cc23)c1 -29.1%
CCCCN(C)CCCNC(=O)CN1C(=O)COc2ccc(S(=O)(=O)N3CCC(C)CC3)cc21 -6.06%
CCOC(=O)N1CCc2c(sc(NCc3sccc3C)c2C(=O)Nc2cc(OC)ccc2OC)C1 -15.2%
CCCCNC(=O)C1CCN(C(=O)N2CC(C)Oc3ccc(Cl)cc32)CC1 (stereo not drawn) -13.4%
CCOc1ccccc1-n1c(C)nc2cc(C(=O)O)ccc21 -7.14%
Cc1cccc(C(=O)N2CCc3cc(CNC(=O)c4ccnn4C)ccc32)c1 -34.4%
CCOc1ccccc1NC(=O)Cc1coc2c(C)c(C)ccc12 -26.2%
CCOc1ccccc1NC(=O)CN1C(=O)COc2ccc(S(=O)(=O)N3CCCCCC3)cc21 -27.3%
N#C/C(=C\c1ccc(F)cc1)C(=O)NCC1CCCO1 (stereo not drawn) 1.45%
Cn1cnc(S(=O)(=O)N2CCCC(C(=O)NCc3ccccc3Cl)C2)c1 (stereo not drawn) -9.94%
Cc1ccc(CCNC(=O)C(CC(C)C)NS(=O)(=O)c2ccc3c(c2)oc(=O)n3C)cc1 (stereo not drawn) -5.89%
CCn1c(=NC(=O)c2ccc(S(=O)(=O)N3CCCCC3)cc2)sc2cccc(OC)c21 -40.7%
CCc1nn2c(-c3ccccc3OC)ccnc2c1-c1ccc(F)cc1 -34%
COC(=O)c1ccc(NC(=O)CCc2c(C)nc3c(c(C)nn3-c3ccc(C)cc3)c2C)cc1 -13.8%
